From the supplement of paper PMC3334620
Whole data set: some 33,000 sequences, median “E-score (-0.5 to 0.5)” near -0.056, cut for the highest 2% near 0.38. Some of the results follow.

target: Stb4 (UniProt P50104); test: PBM E-score (8-mer binding enrichment) (E-score (-0.5 to 0.5)); higher = stronger / more preferred TF binding; most listed sequences are background and not binding sites; settings: protein concentration: 200 nM; construct: GST-DNA-binding domain
In short: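 E-scores (a modified Wilcoxon-Mann-Whitney statistic) were assigned by the Universal PBM Analysis Suite to every ungapped eight-base word pooled with its reverse complement. The input came from universal all-10-mer Agilent arrays made double-stranded by primer extension and probed with GST-tagged yeast transcription factors at about 100-200 nM. Fluorescent anti-GST detected bound protein, and masliner normalised the scans.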

| Sequence | PBM E-score |
| --- | --- |
| TGTGGGAA | -0.216 |
| CTCAGACA | -0.257 |
| AATCATTG | -0.336 |
| ACGCCGTC | 0.00534 |
| ACTAATGC | 0.0781 |
| AAGAACTG | -0.0907 |
| TCATATAA | -0.151 |
| ATCGAATA | -0.143 |
| AGCTGCCT | -0.183 |
| CCACCAGA | -0.132 |
| TAAATTCA | -0.225 |
| GTACATCA | -0.00531 |
| CTCTAGAA | -0.208 |
| GGGAGAGA | -0.105 |
| AGCTTTAG | -0.246 |
| CCTTGGGC | -0.177 |
| GAATTGGC | -0.0889 |
| ATAAACAT | -0.0328 |
| GTATGCAA | -0.0553 |
| AACCGGTA | 0.146 |
| ACCGTGTA | -0.0765 |
| TAAGCTGA | 0.0804 |
| CAATCCAC | -0.0708 |
| CTGAAGAA | -0.226 |
| CTCACCAC | -0.102 |

| Sequence | PBM E-score |
| --- | --- |
| TAACCTAA | -0.105 |
| ATATGAGA | -0.0361 |
| CCCATTAG | -0.321 |
| ACTAATTG | -0.0257 |
| GAGAGTGC | -0.236 |
| ACGTCGAG | -0.227 |
| GAACGTGC | -0.109 |
| CGTGCAAA | -0.154 |
| CCAGATCC | 0.0602 |
| GGCAAACA | 0.0353 |
| ACGGTCCG | 0.241 |
| GGGCACAA | -0.115 |
| GTCGAAGA | -0.178 |
| CGACGTAC | 0.0486 |
| CGTAGACG | -0.0949 |
| GCGTGTAA | -0.243 |
| CGCCCTAC | -0.236 |
| AACAACTC | -0.134 |
| CTCAAGAC | -0.0435 |
| ACCTATAG | -0.331 |
| AGGCCATG | -0.12 |
| GCAAAAAC | -0.0252 |
| CCTCATAC | -0.0239 |
| TCAGTAAA | -0.0926 |
| CTCACCCC | 0.0242 |

| Sequence | PBM E-score |
| --- | --- |
| CGCCGCGA | 0.0875 |
| GTTAACTA | 0.0345 |
| CGTCCCAA | -0.155 |
| CATCTCCC | 0.205 |
| AACCGACT | 0.215 |
| CGACTGCA | -0.0596 |
| AACAAACC | 0.161 |
| AGTGACTA | -0.106 |
| ACAGATGC | -0.0741 |
| CCGTCTAA | 0.134 |
| CTGTAAGA | -0.175 |
| ATGAAAAT | 0.0835 |
| TAAGAGGA | -0.101 |
| ATGGCCAC | -0.251 |
| CAGTTCAG | -0.284 |
| AAAATTAC | 0.0435 |
| AAGGCGAG | -0.204 |
| GTTGAAAA | 0.107 |
| CCGATCAA | 0.24 |
| GGATGAAC | 0.216 |
| GTCGGCCA | -0.0483 |
| CCCTAAAA | -0.234 |
| ACCAAGCG | -0.111 |
| AACGGACT | 0.0278 |
| ACGGCACA | 0.145 |

| Sequence | PBM E-score |
| --- | --- |
| GTTTATTA | 0.126 |
| GTCCTCCA | -0.138 |
| ACATCCAA | -0.0853 |
| GGGCGGAA | 0.308 |
| CCTAGGAG | -0.0756 |
| TAATAGTA | 0.0223 |
| ATCGGAAG | 0.433 |
| AAAAGATT | -0.0765 |
| CAGAGCTA | -0.215 |
| CGCACAAG | -4e-05 |
| CACATTTC | 0.00324 |
| GGTGCCTA | -0.0355 |
| CAATACAA | -0.00033 |
| CATAACTA | -0.159 |
| GAGGAGAA | -0.115 |
| CAGGGAGC | -0.277 |
| CTCAGTGC | -0.109 |
| CGGGTACG | 0.333 |
| CTTAGCCA | -0.21 |
| TACATGTA | -0.155 |
| CCCCCCAC | -0.3 |
| CCAGACTA | -0.229 |
| ATGGGACC | -0.189 |
| CCAATTAG | -0.165 |
| CTAGCGCA | -0.318 |

| Sequence | PBM E-score |
| --- | --- |
| CTCGGGAA | 0.462 |
| AGTAACAC | 0.0427 |
| ATCTAATC | -0.0169 |
| CTAGTAAG | -0.188 |
| CTTGAGTA | -0.191 |
| ACAGAAGG | -0.201 |
| ACGCTACT | 0.132 |
| ATTTATAA | 0.00745 |
| AGATCATC | -0.0349 |
| CAGGCAGC | -0.201 |
| ACGAAGAG | -0.117 |
| AGAGCTAA | -0.217 |
| CCGGATGC | 0.396 |
| ATACTCTG | -0.0469 |
| ATAGTTGA | -0.00074 |
| AAGGAGAA | -0.0453 |
| CTTGATTC | 0.0888 |
| ACCCAACA | -0.0981 |
| ATAACACA | -0.0247 |
| ATTGTTGA | -0.199 |
| AAGTAGTG | -0.176 |
| ATGCAAGC | -0.145 |
| ATAGATCA | 0.0146 |
| AGTTAGAC | -0.0164 |
| GGTAGCAA | -0.109 |

| Sequence | PBM E-score |
| --- | --- |
| TATCTAGA | -0.169 |
| CTGGCAAC | -0.243 |
| AGTCAGAA | -0.104 |
| CATGATGG | -0.269 |
| ACAGCCTG | -0.25 |
| CGGCACAC | 0.274 |
| AGGTAGCC | -0.0398 |
| GAAGCAGC | -0.0283 |
| CATATTGC | -0.0428 |
| CATCGGCC | 0.159 |
| ACGTAAAG | -0.128 |
| CCTCTGCG | -0.143 |
| AGTATTGA | -0.226 |
| AAACGACA | -0.138 |
| GATTGCAC | -0.0781 |
| CGAATTGA | 0.0281 |
| TGTGAAAA | -0.175 |
| AAGGAACT | -0.0354 |
| ACATATAG | -0.134 |
| CTCCACCC | -0.145 |
| GATAGATA | 0.098 |
| GATCAGGA | -0.029 |
| ACAGGACT | -0.102 |
| AAGATGGT | -0.0241 |
| AAGGCGGG | -0.0393 |

| Sequence | PBM E-score |
| --- | --- |
| CTCAGCCC | -0.169 |
| GTCGCTCA | -0.129 |
| TCCATCCA | -0.278 |
| TCCTTCAA | -0.11 |
| ACGATGTG | 0.00046 |
| CATTCTCC | -0.138 |
| AGCTACGA | -0.277 |
| ACGCGTCG | 0.155 |
| CGATTTTC | 0.141 |
| CGCGTGTA | -0.0132 |
| TCTGTACA | 0.137 |
| CCTAGTCC | -0.0917 |
| AGATCTGA | -0.0785 |
| TGGACAAA | -0.0147 |
| CCACTGAC | -0.219 |
| GATATCAC | -0.0685 |
| CGTTGCAC | 0.159 |
| ACAGTTCG | 0.185 |
| AATTCGAC | -0.265 |
| CGCACCGA | 0.105 |
| CCGTTTCG | 0.241 |
| GACTAGTA | -0.097 |
